Results as given in PubChem BioAssay AID588453 (National Center for Advancing Translational Sciences (NCATS), 2011).
Out of some 390,000 compounds screened, about 4,000 (1%) were called active. Inconclusive means that the source gave no clear call. Such entries were picked first, then a sample of the others. Calls come from the whole dose curve; as a rule, active = well fitted inhibition curve with a large enough effect; inconclusive = small, poorly fitted or top-dose-only effect; inactive = no such curve, though single readings can be large or run the other way. Potencies of inconclusive entries are doubtful fits and often do not repeat.

Biological target: Thioredoxin reductase 1, cytoplasmic (Rattus norvegicus) (UniProt O89049)
Sequence of UniProt O89049 (O89049 whole entry, looked up): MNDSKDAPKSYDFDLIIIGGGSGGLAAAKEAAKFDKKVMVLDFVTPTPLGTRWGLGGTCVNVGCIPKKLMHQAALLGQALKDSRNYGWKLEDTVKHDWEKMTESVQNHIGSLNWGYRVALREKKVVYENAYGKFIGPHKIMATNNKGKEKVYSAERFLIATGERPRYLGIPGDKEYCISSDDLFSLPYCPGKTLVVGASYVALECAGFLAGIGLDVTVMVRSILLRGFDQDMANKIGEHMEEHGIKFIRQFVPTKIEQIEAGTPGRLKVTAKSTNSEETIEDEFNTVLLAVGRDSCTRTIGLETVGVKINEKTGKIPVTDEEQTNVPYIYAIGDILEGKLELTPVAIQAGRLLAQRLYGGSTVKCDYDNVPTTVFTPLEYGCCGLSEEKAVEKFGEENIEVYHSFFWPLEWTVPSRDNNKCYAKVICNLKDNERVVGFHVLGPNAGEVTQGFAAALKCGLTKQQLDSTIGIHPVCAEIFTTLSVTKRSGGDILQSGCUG
Assay: qHTS Assay for Inhibitors of Mammalian Selenoprotein Thioredoxin Reductase 1 (TrxR1): qHTS; note: nearly all actives have a fitted effect of over 65% in size
Settings: recombinant rTrxR1, NADPH fluorescence consumption, selenite substrate; series mostly up to 114 µM
Outline: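 Rat TrxR1 (90 nM in the dispensed reagent) was pre-reduced with 400 uM NADPH for 5 min at room temperature, then incubated with compound for 15 min. After 400 uM selenite was added, NADPH fluorescence (Ex 340/Em 450 nm) was followed for 8 min.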
% is set by controls: 0 for no effect and ±100 for the full control effect; potency is the fitted concentration of half-maximal effect; tags give direction and shape of the fitted curve.

| Compound | Potency | activity change, negative = inhibition |
| --- | --- | --- |
| O=C1Nc2cc(C(=O)NCCCN3CCCC3)ccc2S/C1=C/c1ccccc1F | inactive |  |
| S=c1nc[nH]c2c1[nH]c1ccccc12 | inconclusive: 28.2 µM [inhibitor, partial curve] |  |
| C=CCOc1c(Cl)cc(CNc2ccc(N(C)C)cc2)cc1OC | inconclusive: 56.2 µM [inhibitor, partial curve, poor fit] |  |
| Oc1c(Br)cc(Br)cc1/C=N/c1nccs1 | active: 35.5 µM |  |
| N#Cc1cc2c([nH]c1=S)CCCC2 | inactive |  |
| O=C(NCc1ccco1)c1ccccc1-c1ccccc1 | inactive |  |
| Cc1ccc(OCC(=O)Sc2ccc(C)cc2)cc1 | inconclusive: 35.5 µM [inhibitor, single point] |  |
| O=S(=O)(/N=C(\Sc1ccccc1)c1ccccc1)c1ccc(Cl)cc1 | inconclusive: 70.8 µM [inhibitor, single point] |  |
| C=CCNC1=C(Cl)C(=O)N(c2ccccc2Cl)C1=O | active: 25.1 µM |  |
| CCCOc1ccc(CN(C(=O)c2cc(=O)c3ccc(C)cc3o2)C2CCS(=O)(=O)C2)cc1 (stereo unspecified) | inactive |  |
| C#CCOCCOCCOCCNc1nc(N2CCN(C(=O)[C@H](CCC(=O)O)n3cc(C(N)CC(C)C)nn3)CC2)nc(N2CCN(C(=O)[C@H](CCC(=O)O)n3cc(C(N)[C@H](C)CC)nn3)CC2)n1 (stereo partly specified) | inconclusive: 15.8 µM [inhibitor, partial curve, poor fit] |  |
| C=C(C)/C=N/NC(=S)Nc1ccc(S(=O)(=O)N2CCOCC2)cc1 | inconclusive: 70.8 µM [inhibitor, partial curve, poor fit] |  |
| O=C(CSc1nnc(CN2CCCC2)n1-c1ccccc1)c1ccc2c(c1)OCO2 | inconclusive: 70.8 µM [inhibitor, single point] |  |
| CCN1CCN(CCCNC(=O)c2cc3cc4ccc(OC)cc4nc3o2)CC1 | inconclusive: 70.8 µM [inhibitor, single point] |  |
| Cc1coc2c(O)cc3c(c12)OC1(N2CCCCC2)C(=O)NCCCC31 (stereo unspecified) | inconclusive: 20 µM [inhibitor, full curve] |  |
| O=C(N/N=C/c1ccc(N2CCOCC2)o1)c1cccc(C(F)(F)F)c1 | active: 7.08 µM |  |
| O=C(Nc1ccccc1C(=O)NC1CC1)c1ccc([N+](=O)[O-])o1 | inconclusive: 70.8 µM [inhibitor, single point] |  |
| CCOC(=O)C1=C(C)N=c2s/c(=C/c3ccc(OCC(=O)O)c(OC)c3)c(=O)n2C1c1ccc(Cl)cc1 (stereo unspecified) | inactive |  |
| O=C1C=C(O)c2[nH]c(=O)ccc2C1=O | inactive |  |
| O=C(O)CCn1cc(/C=C\C(=O)c2ccc(Cl)cc2)c(-c2cccc(Br)c2)n1 | inconclusive: 79.4 µM [inhibitor, partial curve] |  |
| CC1(C)OB(c2cnc(C#N)nc2)OC1(C)C | inactive |  |
| N#CCNC1CC(=O)N(c2ccc(F)cc2)C1=O (stereo unspecified) | inconclusive: 39.8 µM [inhibitor, full curve, poor fit] |  |
| Cc1cc2c(c(=O)o1)C1(C(=O)N(CC(=O)O)c3ccccc31)C(C#N)=C(N)O2 (stereo unspecified) | inconclusive: 79.4 µM [inhibitor, single point] |  |
| O=C(c1ccccc1)N1CCSC1=S | inconclusive: 28.2 µM [inhibitor, partial curve, poor fit] |  |

| Compound | Potency | activity change, negative = inhibition |
| --- | --- | --- |
| Cc1ccc(-c2noc(-c3ccc(NCc4ccco4)c([N+](=O)[O-])c3)n2)cc1 | inactive |  |
| C=C(C)C1CC=C(C(=O)O)CC1 (stereo unspecified) | inconclusive: 1.34 µM [inhibitor, partial curve, poor fit] |  |
| CCOC(=O)c1c(-c2ccco2)csc1NC(=O)COC(=O)c1cnc(C)cn1 | inconclusive: 35.5 µM [inhibitor, partial curve] |  |
| Cc1cc(C(=O)CCl)c(C)n1CC1COc2ccccc2O1 (stereo unspecified) | inconclusive: 7.08 µM [inhibitor, partial curve] |  |
| COc1cccc(CN(C)C(=O)CC2C(=O)NCCN2C2Cc3ccccc3C2)c1 (stereo unspecified) | inconclusive: 79.4 µM [inhibitor, single point] |  |
| O=C(CNC(=O)c1ccccc1F)N/N=C/c1cccs1 | inconclusive: 79.4 µM [inhibitor, partial curve, poor fit] |  |
| CN(C)c1nc(N)c(C(=O)N=C(N)N)nc1Cl | inconclusive: 37.7 µM [inhibitor, partial curve, poor fit] |  |
| Cc1ccc(-c2nc3nc(C)cc(C)n3c2Nc2ccc3c(c2)OCCO3)cc1 | inactive |  |
| COc1cc(OC)c(OC)cc1/C=N/NC(=O)CSc1ccccc1F | inconclusive: 39.8 µM [inhibitor, partial curve, poor fit] |  |
| Cc1ccc(Cn2ccn(CC(=O)Nc3c(C)cc(C)cc3C)c(=O)c2=O)cc1 | inactive |  |
| CCOC(=O)[C@@H]1[C@H]2COc3cc(OC)ccc3[C@@H]2N2C(=O)N(c3ccc(C)cc3)C(=O)[C@@]12C |  | inactive: 16.7% [at 2.29 µM] |
| O=C(CSc1ccc2nnc(-c3ccccc3)n2n1)NCc1ccco1 | inconclusive: 50.1 µM [inhibitor, partial curve, poor fit] |  |
| COC(=O)c1ccc(=O)c2nc3/c(=C/O)c(O)cc(=O)c3[nH]c12 | active: 56.2 µM |  |
| Cc1onc(-c2c(F)cccc2Cl)c1C(=O)NC(=S)NC1CCS(=O)(=O)C1 (stereo unspecified) | inconclusive: 44.7 µM [inhibitor, partial curve] |  |
| CCC(C)NC(=O)c1cn(-c2cccc(C)n2)cn1 (stereo unspecified) | inactive |  |
| COC(=O)c1ccccc1NC(=O)CN1CCN(C(=O)c2ccco2)CC1 | inconclusive: 89.1 µM [inhibitor, single point] |  |
| COCCn1nnnc1SCC(=O)c1ccc(F)cc1 | inconclusive: 70.8 µM [inhibitor, single point] |  |
| O=C(c1ccc(Cl)cc1)N(c1ccccn1)C1CCCCC1 | inactive |  |
| CCCOc1ccc(C(C)=O)cc1CN1CCOCC1 | inconclusive: 79.4 µM [inhibitor, single point] |  |
| CCOC(=O)C1=C(C(C)=O)C(c2cccnc2)C(C#N)=C(N)O1 (stereo unspecified) | inconclusive: 28.2 µM [inhibitor, partial curve, poor fit] |  |
| Cc1nnc(N2C(=O)C(O)=C(C(=O)c3ccco3)C2c2cccc3ccccc23)s1 (stereo unspecified) | inconclusive: 70.8 µM [inhibitor, partial curve] |  |
| Cc1ccc(OCC(=O)N/N=C/C=C/c2ccco2)cc1C | active: 39.8 µM |  |
| Cc1c(CCC(=O)NC2CC2)c(=O)oc2c(C)c(O)ccc12 | inconclusive: 79.4 µM [inhibitor, single point] |  |
| N#CNc1nc(O)cc(=O)[nH]1 | inconclusive: 31.6 µM [inhibitor, partial curve, poor fit] |  |

| Compound | Potency | activity change, negative = inhibition |
| --- | --- | --- |
| Cc1c(NC2(C#N)CCCCC2)c(=O)n(-c2ccccc2)n1C | inconclusive: 20 µM [inhibitor, single point] |  |
| Cc1cc(NN)nc2ccc(Cl)cc12 | inactive |  |
| Cc1cc(F)ccc1NC(=O)CN(C)S(=O)(=O)c1ccc(C(=O)N2CCOCC2)s1 | inactive |  |
| CCOc1ccc(NC(=O)c2c(NCc3sccc3C)sc3c2CCCCC3)cc1 | inconclusive: 35.5 µM [inhibitor, single point] |  |
| OC(CN1CCN(c2cccc(Cl)c2)CC1)c1ccccc1 (stereo unspecified) | inactive |  |
| O=C(O)c1cc2c(=O)c3ccccc3oc2nc1C(F)(F)F | inactive |  |
| O=C(NCCC(=O)N(Cc1ccco1)Cc1cccs1)c1ccccc1Cl | inactive |  |
| N#Cc1c(NC(=O)CSc2nnc(-c3ccccc3)o2)sc2c1CCCC2 | inconclusive: 25.1 µM [inhibitor, partial curve, poor fit] |  |
| CCN(CCNCC(O)COCc1ccc(Cl)cc1)c1cccc(C)c1 (stereo unspecified) | inactive |  |
| O=c1c(C(c2ccc(O)cc2)c2c(O)nc3n(c2=O)CCS3)c(O)nc2n1CCS2 | active: 3.16 µM |  |
| CCCc1cc(CN2CCOCC2)c(O)c(CN2CCOCC2)c1O | active: 1.58 µM |  |
| O=c1c2cc(N3CCOCC3)ccc2[nH]c(=S)n1Cc1ccco1 | active: 10 µM |  |
| Cc1ccc2c(C(=O)CN3CCSCC3)c(C)[nH]c2c1 | inconclusive: 6.31 µM [inhibitor, partial curve] |  |
| O=C1NN(c2ccccc2)C(=O)/C1=C\c1cccc(OC(=O)c2cccs2)c1 | inconclusive: 22.4 µM [inhibitor, partial curve] |  |
| S=c1[nH]nc(-c2cc(-c3ccco3)[nH]n2)n1-c1cccc2ccccc12 | inconclusive: 25.1 µM [inhibitor, partial curve] |  |
| CCOC1=C/C(=C/c2c(N)n3nc(S(=O)(=O)CC)sc3nc2=O)C=CC1=O | inconclusive: 31.6 µM [inhibitor, partial curve] |  |
| N#CCCN(C(=S)NC(=O)c1cccs1)c1ccccc1F | inconclusive: 35.5 µM [inhibitor, partial curve, poor fit] |  |
| N#CC1=C(N)C(C#N)(C#N)C(c2cccnc2)C2CN(C(=O)OCc3ccccc3)CC=C12 (stereo unspecified) | inconclusive: 22.4 µM [inhibitor, single point] |  |
| CCOC(=O)c1c(-c2ccccc2)oc2ccc(O)c(CN3CCOCC3)c12 | inconclusive: 39.8 µM [inhibitor, single point] |  |
| Cc1ccc(Cn2c(SCC(=O)N/N=C/c3ccc(C)o3)nc3ccccc32)cc1 | inconclusive: 89.1 µM [inhibitor, single point] |  |
| NC(=O)c1ccsc1NC(=O)c1ccco1 | active: 56.2 µM |  |
| Cc1ccc(-c2csc(/C(C#N)=C/Nc3ccc4c(c3)OCCO4)n2)cc1 | inconclusive: 11.2 µM [inhibitor, partial curve] |  |
| COc1cccc(C2=NN(C(=O)c3ccco3)C(O)(C(F)(F)F)C2)c1 (stereo unspecified) | inconclusive: 15.8 µM [inhibitor, partial curve] |  |
